Measurements taken from the supplement of paper PMC11417369.
± gives the standard deviation of the averaged measurements. Some of the results follow.

System: PfAP2-I AP2 domain 3 (GST-tagged)
Assay: gcPBM binding intensity (ln(normalized median fluorescence intensity)); higher = stronger DNA binding
Procedure, shortened: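 An Agilent 4 × 180k array carrying primer-extended double-stranded 36-bp intergenic genomic probes and negative controls received GST-tagged P. falciparum DNA-binding domains expressed in E. coli, about 25 μg on average, for 1 h. The binding buffer contained 1× PBS, 1% milk, 0.2 mg/ml BSA, 0.5% salmon testes DNA and 0.03% Triton X-100. Binding intensity is the top Masliner-normalised natural-log median intensity across replicate spots of either probe orientation, read after Alexa488 anti-GST antibody staining and a 488 nm scan.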

Sequence	gcPBM binding intensity (ln)
TTGTTTATGTGAGAAGTGCATTTTTTCGTTCATGTA	9.07 ± 0.42
AAGTTTTATATTTATTAAATTTTTTTTTTTCCTTTT [XGTACX_negctrl_site184]	7.18 ± 0.67
TTTTTTATTTTGTTGAAGCAATGAAAATGAATGAAA [TGCATGCA_negctrl_site495]	8.02 ± 0.28
ATATGTTTAAAAATATGTACGTATTATATATTCTAT [XGTACX_site1358]	7.94 ± 0.3
ATGTAAGTATAAAATGTGCGCATTGGGAATGAGGAC	9.22 ± 0.43
TGTAGATATTATATATGTACGCATATGAAATATATA [XGTACX_site1586]	7.93 ± 0.014
GTAATATCAATATAAAGTACACACTATAGTATGTAT [XGTACX_site4714]	7.66 ± 0.49
TAATTATATAAATATTGTACAAAAAAAATATATATA [XGTACX_site3137]	7.86 ± 0.57
AAAATATATAATATAACACACATATATTCTATATGG [CACACA_site4044]	7.59 ± 0.32
TTCAAAATATATATTTGTACATATAGGATCTTTTTC [XGTACX_site4500]	7.62 ± 0.43
TCTTTTTTTTTTTTTTTTTTTTTTTTTTTTTTTTTT [GTGCAC_negctrl_site18]	10.1 ± 0.25
ATAAAACCAACATAGAGTACAGATCGACTATGTTTC [XGTACX_site4329]	7.42 ± 0.57
TTTTCTTTTTAAATTACACACACATATATATATGTA [CACACA_site9172]	7.74 ± 0.52
ATTTTAATGACATATACACACAAAGGTTCATAACAA [CACACA_site5664]	7.7 ± 0.54
TTAACGCTTATTTTTTGTACTTATTTTATTTTAAAT [XGTACX_site3977]	8.16 ± 0.54
ACTCTATAATAAAATACACACAAGACTATCTAATAT [CACACA_site1796]	7.81 ± 0.44
CAACATTAATATAAAGCACACATATATATAATATAT [CACACA_site8064]	9.63 ± 0.56
ATATATACATATAATTGTACTTGTGTTGTTTTTCTT [XGTACX_site1870]	7.85 ± 0.51
TTTTATTTATAATATATACACACTAACATTATTTAT [CACACA_site1284]	8.03 ± 0.042
GAATATTTATCATGGGGTACCTTAAAAAAGGGAAAA [XGTACX_site298]	7.89 ± 0.34
ATATCTTAAATTATTTGTACATATATATATATATAT [XGTACX_site8034]	9.74 ± 0.2
AATATAAACCCAAACACACACATATATATATATATA [CACACA_site268]	9.4 ± 0.37
TTTTTTTTTTTGAGGAGGACACAAAAATATGCTACC [XGTACX_site756]	8.32 ± 0.53
AATATAAAAATATAAAAACACACGTAAAAAAATTTA [CACACA_site3399]	7.63 ± 0.67
TATATTCTTTTAAACAGTACACACACACATATATAT [XGTACX_site1701]	8.3 ± 0.53
